Test results taken from the supplement of paper PMC10126150.
Values marked as one replicate rest on one cluster of the flow cell; about a third of the high ones do not repeat.

Test system: ATP
Experiment: switch fluorescence ratio, 500 uM ATP over buffer (Cy3 cluster intensity, sum of 5 cycles each) (fold (ratio)); higher = stronger signal-on switching upon ATP binding; sequences stand for … in TCGTCGGCAGCGTCAGATGTGTATAAGAGACAGTTTTTTTTTTTTTTTTTTTTTTTTT…TC
Conditions: aptamer strand: ATP DNA aptamer (quencher-CACCTGGGGGAGTATTGCGGAGGAAGG + anchor), 100 nM annealed; ATP concentration: 500 uM; one replicate
How it was run: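 For every switch-domain sequence, the fluorescence ratio is the mean of per-cluster values, each being summed target-cycle Cy3 intensity over summed buffer-cycle Cy3 intensity. Clusters outside 100-1000 RFU were excluded. On a modified Illumina MiSeq flow-cell, the Cy3-labelled switching-strand clusters were annealed to 100 nM quencher-labelled ATP aptamer, imaged in selection buffer and then after 15 min with 500 uM ATP at 22 °C. Five such cycles were run, with NaOH stripping and re-annealing between them.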
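Note: ATP exposure 15 min at 22 °C before imaging.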

TTCAAATTAG
switch fluorescence ratio: 1

TCATCATTGA
switch fluorescence ratio: 1.03

CATTTATTAC
switch fluorescence ratio: 1.06

AGTCAGTTTC
switch fluorescence ratio: 1.01

ATTGCACGGG
switch fluorescence ratio: 1.03

CCATTAGCTT
switch fluorescence ratio: 1.09

CGAAAAAAGC
switch fluorescence ratio: 1.13

AGATATACTC
switch fluorescence ratio: 1.11

CAGAAGGCAC
switch fluorescence ratio: 1.06

AGAAGGTGAA
switch fluorescence ratio: 1.11

TTGGTATGCG
switch fluorescence ratio: 0.93

TTGACAGCCT
switch fluorescence ratio: 1.06

TTCTCATGGA
switch fluorescence ratio: 1.03

AGAGGTTCGC
switch fluorescence ratio: 0.97

TGTGGATGTG
switch fluorescence ratio: 0.992

TTAGAATCCA
switch fluorescence ratio: 0.96

CAGGATGGGG
switch fluorescence ratio: 0.999

ATAGATGTAG
switch fluorescence ratio: 1.03

AGCACTCACC
switch fluorescence ratio: 1.77

AGCAGTCATG
switch fluorescence ratio: 0.988

ATTTGGTCAC
switch fluorescence ratio: 0.976

TATTATTAGA
switch fluorescence ratio: 0.962

AGCTGAACCA
switch fluorescence ratio: 1.01

CGTGCAGTGG
switch fluorescence ratio: 1.02

TGTATTGCCA
switch fluorescence ratio: 0.975

TAAAAAGGTC
switch fluorescence ratio: 0.959

ACTTGAGACT
switch fluorescence ratio: 1.03

GAATGCCTAG
switch fluorescence ratio: 1.01

TCATCCCCGT
switch fluorescence ratio: 1.16

CTGAGGTTTC
switch fluorescence ratio: 1.03

CAGAGCACTG
switch fluorescence ratio: 1.03

AGGAAGAGAC
switch fluorescence ratio: 1.01

AAGGTTGGGC
switch fluorescence ratio: 1.03

CATATGCTAC
switch fluorescence ratio: 4.01

GGGCCTTTGG
switch fluorescence ratio: 0.967

AGCTAAGTCT
switch fluorescence ratio: 1.04

CGATCACCTT
switch fluorescence ratio: 1.08

AGGCGAGTCC
switch fluorescence ratio: 0.99

CCCCGAGTCT
switch fluorescence ratio: 1.27

GAATCCTTGT
switch fluorescence ratio: 1.04

TACGTCATCC
switch fluorescence ratio: 1.27

CAAGAATT
switch fluorescence ratio: 1.01

TATTTCAAGG
switch fluorescence ratio: 1.03

AGGGTTTATA
switch fluorescence ratio: 1.02

TAAAACCACG
switch fluorescence ratio: 1.05

ACTTGCCAGG
switch fluorescence ratio: 1.88

GCTCGGGAAC
switch fluorescence ratio: 1.18

TTGCAGCCCG
switch fluorescence ratio: 0.989

CGGAGAATGC
switch fluorescence ratio: 1.82

ATGCCAGTGT
switch fluorescence ratio: 1.09

AATGGCAGTT
switch fluorescence ratio: 1.01

ATTCGTCTTG
switch fluorescence ratio: 1.02

TAGCATATAA
switch fluorescence ratio: 1.39

TGCGAGTTGG
switch fluorescence ratio: 1

AAGGTCATTG
switch fluorescence ratio: 1.01

CTTGTAATGG
switch fluorescence ratio: 1.1

CTGGTCGGTC
switch fluorescence ratio: 0.972

ATTGCGCATT
switch fluorescence ratio: 1.03

GTGATTGCAG
switch fluorescence ratio: 0.989

TTGCCGTCGC
switch fluorescence ratio: 0.891

TCCTTGAGAG
switch fluorescence ratio: 1.03

CACTGCGCA
switch fluorescence ratio: 1.5

GACACACCTG
switch fluorescence ratio: 1.14

CAGTAGATC
switch fluorescence ratio: 1.05

TATCTAAAAT
switch fluorescence ratio: 1.01

AGGCCTAGGA
switch fluorescence ratio: 0.964

GCAGTGACGC
switch fluorescence ratio: 1.07

GGATGCAGTG
switch fluorescence ratio: 1.08

GCGTTAGCCG
switch fluorescence ratio: 1.08

TGTTCGGGAA
switch fluorescence ratio: 1

TCCAGCCTGG
switch fluorescence ratio: 0.991

TTTGGCCTTT
switch fluorescence ratio: 0.965

TCTGTCAGCT
switch fluorescence ratio: 0.988

ACTGTGCAAC
switch fluorescence ratio: 1.2

AATTCTAGAC
switch fluorescence ratio: 1.02

GTCTGTTAAG
switch fluorescence ratio: 1.02

ACAGCTTTTA
switch fluorescence ratio: 1.03

AACATATCTA
switch fluorescence ratio: 1.01

GTGTAAGAGC
switch fluorescence ratio: 0.974

CATCTTTACT
switch fluorescence ratio: 1.01

GTCATAGAAA
switch fluorescence ratio: 0.985

ATCTGGGGGT
switch fluorescence ratio: 1.02

CATTCCTGAC
switch fluorescence ratio: 1.49

CGTTGGCGCG
switch fluorescence ratio: 0.964

CCTGATTGGG
switch fluorescence ratio: 0.967
